# Source: a collection of fitness landscapes (doi:10.1126/science.1257360)
# The other results are listed elsewhere or left out.
# B1: PhoQ; a variant is named by its letters at X, in order, P23837 (parent)
# chain: MKKLLRLFFPLSLRVRFLLATAAVVLVLSLAYGMVALIGYSVSFDKTTFRLLRGESNLFYTLAKWENNKLHVELPENIDKQSPTMTLIYDENGQLLWAQRDVPWLMKMIQPDWLKSNGFHEIEADVNDTSLLLSGDHSIQQQLQEVREDDDDAEMTHSVAVNVYPATSRMPKLTIVVVDTIPVELKSSYMVWSWFIYVLSANLLLVIPLLWVAAWWSLRPIEALAKEVRELEEHNRELLNPATTRELTSLVRNLNRLLKSERERYDKYRTTLTDLTHSLKTPLXXLQXXLRSLRSEKMSVSDAEPVMLEQISRISQQIGYYLHRASMRGGTLLSRELHPVAPLLDNLTSALNKVYQRKGVNISLDISPEISFVGEQNDFVEVMGNVLDNACKYCLEFVEISARQTDEHLYIVVEDDGPGIPLSKREVIFDRGQRVDTLRPGQGVGLAVAREITEQYEGKIVAGESMLGGARMEVIFGRQHSAPKDE
# Variants of: B1
# Assay: enrichment ratio after two sorts for PhoP signalling (ratio (wild type AVST 3.29)); higher = more functional
# Conditions: with PhoP (E. coli)
row,Variant,enrichment ratio
1,FLYS,≤ 0.25
2,MGLC,19.1
3,EQFD,≤ 0.25
4,KNAR,≤ 0.25
5,STCI,12.3
6,HDRT,≤ 0.25
7,ASIG,12
8,NHGF,≤ 0.25
9,FGYA,≤ 0.25
10,PALR,≤ 0.25
11,FKGP,≤ 0.25
12,GDHA,≤ 0.25
13,FVAY,≤ 0.25
14,NSDA,≤ 0.25
15,SQNM,1.65
16,ITEF,≤ 0.25
17,KMHH,≤ 0.25
18,YKRF,≤ 0.25
19,EHKK,≤ 0.25
20,VHGM,≤ 0.25
21,NREG,≤ 0.25
22,KAIL,≤ 0.25
23,EMWF,≤ 0.25
24,MFRN,≤ 0.25
25,IWDY,≤ 0.25

row,Variant,enrichment ratio
1,EVQM,≤ 0.25
2,IILG,0.308
3,QYSR,≤ 0.25
4,IDYN,≤ 0.25
5,AWVY,≤ 0.25
6,NDEF,≤ 0.25
7,VHNT,≤ 0.25
8,WFNM,≤ 0.25
9,QRLH,≤ 0.25
10,YTEA,≤ 0.25
11,RHWC,≤ 0.25
12,AMIH,≤ 0.25
13,FGMR,≤ 0.25
14,YKRQ,≤ 0.25
15,SWTW,≤ 0.25
16,KHTN,≤ 0.25
17,HRNK,≤ 0.25
18,RLAE,≤ 0.25
19,TMCP,≤ 0.25
20,GWLN,≤ 0.25
21,DAFF,≤ 0.25
22,KQCY,≤ 0.25
23,SRHL,≤ 0.25
24,ASAD,≤ 0.25
25,ECHL,≤ 0.25

row,Variant,enrichment ratio
1,GTGH,≤ 0.25
2,RTFY,≤ 0.25
3,DRKR,≤ 0.25
4,FGSV,≤ 0.25
5,RKDH,≤ 0.25
6,VPVD,≤ 0.25
7,GWIW,≤ 0.25
8,NKDY,≤ 0.25
9,AWKL,0.919
10,KKRH,≤ 0.25
11,YWEK,≤ 0.25
12,EMYV,≤ 0.25
13,HSPL,≤ 0.25
14,LWKH,≤ 0.25
15,PRGS,≤ 0.25
16,FDND,≤ 0.25
17,QMHD,≤ 0.25
18,QYYD,≤ 0.25
19,DKDI,≤ 0.25
20,NGSD,≤ 0.25
21,PKVP,≤ 0.25
22,EAGN,≤ 0.25
23,MFPG,≤ 0.25
24,DPCG,≤ 0.25
25,VGGP,≤ 0.25

row,Variant,enrichment ratio
1,FDTL,≤ 0.25
2,AIIC,10.2
3,HEYW,≤ 0.25
4,ARRT,≤ 0.25
5,IWEH,≤ 0.25
6,GEAQ,2.5
7,YTPN,≤ 0.25
8,SARY,≤ 0.25
9,IKQF,≤ 0.25
10,SSGT,6.7
11,IYMP,≤ 0.25
12,DKYS,≤ 0.25
13,SKTC,11.1
14,KCCN,≤ 0.25
15,MDWT,≤ 0.25
16,FKPK,≤ 0.25
17,ESCH,≤ 0.25
18,TVDG,≤ 0.25
19,LGQM,≤ 0.25
20,RFVI,0.664
21,EHGC,≤ 0.25
22,QYML,≤ 0.25
23,NHRM,≤ 0.25
24,TGLI,12.2
25,MWTP,≤ 0.25

row,Variant,enrichment ratio
1,MEYQ,≤ 0.25
2,FGIK,≤ 0.25
3,MGVG,2.02
4,YYYI,≤ 0.25
5,NMTA,≤ 0.25
6,TNSW,2.27
7,DLNL,≤ 0.25
8,DGHV,≤ 0.25
9,YEEH,≤ 0.25
10,HIFY,≤ 0.25
11,EAFG,≤ 0.25
12,TWWD,≤ 0.25
13,TNNS,9.64
14,WWHL,≤ 0.25
15,QGIG,≤ 0.25
16,QYTR,≤ 0.25
17,YVLS,≤ 0.25
18,PGSI,≤ 0.25
19,FAGE,≤ 0.25
20,DPYH,≤ 0.25
21,AFNG,≤ 0.25
22,PFRI,≤ 0.25
23,DTQD,≤ 0.25
24,MHDW,≤ 0.25
25,NPAM,≤ 0.25

row,Variant,enrichment ratio
1,SYIK,≤ 0.25
2,KMEI,≤ 0.25
3,SYVD,≤ 0.25
4,KPMT,≤ 0.25
5,QFWC,17.1
6,GTTH,≤ 0.25
7,IRNC,≤ 0.25
8,TCEQ,≤ 0.25
9,DEIE,≤ 0.25
10,ETDN,≤ 0.25
11,DFSE,≤ 0.25
12,AALM,14.8
13,ELNI,≤ 0.25
14,RISV,≤ 0.25
15,RPTY,≤ 0.25
16,KCQY,≤ 0.25
17,IEAM,≤ 0.25
18,SLSY,3.63
19,PNYP,≤ 0.25
20,SGKD,≤ 0.25
21,GEWY,≤ 0.25
22,NYAW,≤ 0.25
23,GHIW,≤ 0.25
24,TEPG,≤ 0.25
25,MQHQ,≤ 0.25

row,Variant,enrichment ratio
1,ADEV,≤ 0.25
2,ANKK,≤ 0.25
3,KVKT,≤ 0.25
4,SSTV,10.5
5,KEVT,≤ 0.25
6,MGDM,≤ 0.25
7,RRWY,≤ 0.25
8,PSET,≤ 0.25
9,REDS,≤ 0.25
10,YEPS,≤ 0.25
11,ENHI,≤ 0.25
12,QLHR,≤ 0.25
13,EQGN,≤ 0.25
14,KYFR,≤ 0.25
15,VAGV,≤ 0.25
16,QAMG,≤ 0.25
17,KLED,≤ 0.25
18,VFGC,≤ 0.25
19,MNTT,≤ 0.25
20,VRMG,≤ 0.25
21,FIRT,≤ 0.25
22,VADL,≤ 0.25
23,SGWE,≤ 0.25
24,HGPT,≤ 0.25
25,MVPS,≤ 0.25

row,Variant,enrichment ratio
1,DGVI,≤ 0.25
2,SHFR,≤ 0.25
3,VDHD,≤ 0.25
4,CHNH,≤ 0.25
5,FWQL,≤ 0.25
6,PQWD,≤ 0.25
7,KKPN,≤ 0.25
8,HAKE,≤ 0.25
9,KDRM,≤ 0.25
10,HRCP,≤ 0.25
11,PRDC,≤ 0.25
12,DQWW,≤ 0.25
13,MRSQ,≤ 0.25
14,FRIH,≤ 0.25
15,TIRR,≤ 0.25
16,KVDM,≤ 0.25
17,LHGV,≤ 0.25
18,PTIF,≤ 0.25
19,LFLE,≤ 0.25
20,GWHG,≤ 0.25
